The text below walks through data of patent publication US20140213769A1 (KNU INDUSTRY COOPERATION FOUNDATION, published 2014).

The assay addresses T1, VEGF165 (UniProt P15692-4 27-191).
T1 construct: Bought protein
T1 sequence (looked up): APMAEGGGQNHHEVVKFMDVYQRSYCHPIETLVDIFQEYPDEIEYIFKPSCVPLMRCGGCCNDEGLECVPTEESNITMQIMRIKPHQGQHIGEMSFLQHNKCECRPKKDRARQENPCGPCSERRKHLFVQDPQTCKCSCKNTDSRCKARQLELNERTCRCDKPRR
Description: indirect ELISA, VEGF165 coated, as in Example 2. A general note: In an ELISA, binding on a coated surface is turned into a signal by an enzyme label.

B1: VEGF-trap (Fc) 2 (Fc fusion)
chain: GRYVQDYRSPFIASVSDQHGVVYITENKNKTVVIPCLGSISNLNVSLCARYPEKRFVPDGNRISWDSKKGFTIPSYMISYAGMVFCEAKINDESYQSIMYIVVVVGYRIDVVLSPSHGIELSVGEKLVLNCTARTELNVGIDFNWEYPSSKHQHKKLVNRDLKTQSGSEMKKFLSTLTIDGVTRSDQGLYTCAASSGLMTKKNSTFVRVHEKGPG[human IgG1 Fc cut from this listing]
notes: also called R2D2D3-hFc
For the molecule B1, the binding result is listed as “binds”.
